# Measured values reported in the supplement of paper PMC5919970.
# Structures can show the parent of a compound that is named as a salt. Over roughly 2,000 compounds, “fractional viability relative to vehicle” has its median near 0.91; the lowest 2% begin near 0.045. Some of the results follow.
# Test system: TYKNU
# Experiment: fractional viability relative to vehicle; TYKNU is a high-grade serous ovarian cancer line; higher = less growth inhibition
# Settings: 72 h
# In short: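 TYKNU control cells or lentiCRISPRv2 knockout derivatives were seeded at 500 cells per well into drug-stamped 384-well plates holding a ~2100-compound library at 2 or 10 μM, in duplicate. Cells were grown at 37 °C in 5% CO2 in RPMI 1640 with 10% FBS, and drug treatment lasted 72 h. Viability was read by Cell Titer Glo luminescence. Duplicate treatment wells were averaged and normalised to duplicate control wells from the same plate position.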
# [1] = 2uM, genotype: DNM1L knockout (sgDNM1L #1)
# [2] = 2uM, genotype: sgCTRLA1 (non-targeting control)
# [3] = 10uM, genotype: DNM1L knockout (sgDNM1L #1)
# [4] = 10uM, genotype: sgCTRLA1 (non-targeting control)
SMILES,fractional viability [1],fractional viability [2],fractional viability [3],fractional viability [4]
CC(=O)[C@H]1CC[C@H]2[C@@H]3CCC4=CC(=O)CC[C@]4(C)[C@H]3CC[C@]12C [Progesterone],0.878,0.943,0.785,0.879
Cn1cc(CNCC2CCN(c3ncc(C(=O)NO)cn3)CC2)c2ccccc21,0.0832,0.115,0.0838,0.105
CN(C)CC/C=C1/c2ccccc2Sc2ccc(Cl)cc21 [Chlorprothixene],1.09,1.07,0.734,0.947
C[C@]12CC[C@@H]3c4ccc(O)cc4CC[C@H]3[C@@H]1CC[C@@H]2O [Estradiol],0.859,1.12,0.757,0.975
CCNC(=O)Nc1ccc(-c2nc3c(c(N4CCOC[C@@H]4C)n2)CCN(C2COC2)C3)cc1,0.812,0.971,0.926,0.811
CCCN(CCC)S(=O)(=O)c1ccc(C(=O)O)cc1 [Probenecid],1.19,1.04,1.1,0.964
CCNC(=O)c1[nH]nc(-c2cc(Cl)c(O)cc2O)c1-c1ccc(OC)cc1,0.407,0.325,0.26,0.139
CC(C)c1ccc(NC(=O)Cn2cnc3c2c(=O)n(C)c(=O)n3C)cc1,1.07,1.17,0.831,1.07
C[C@H](NC(=O)/C(C#N)=C/c1cccc(Br)n1)c1ccccc1,0.9,0.999,0.0615,0.0707
Fc1ccc(Cl)cc1-c1nc(Nc2ccncc2)c2nccnc2n1,0.924,1,0.895,0.702
CO[C@H]1C[C@@H]2CC[C@@H](C)[C@@](O)(O2)C(=O)C(=O)N2CCCC[C@H]2C(=O)O[C@H]([C@H](C)C[C@@H]2CC[C@@H](OCCO)[C@H](OC)C2)CC(=O)[C@H](C)/C=C(\C)[C@@H](O)[C@@H](OC)C(=O)[C@H](C)C[C@H](C)/C=C/C=C/C=C/1C [Everolimus (RAD001)],0.676,0.719,0.57,0.615
CN(C)CCN(Cc1ccccc1)c1ccccn1 [Tripelennamine HCl],0.994,1.11,0.752,1.14
CC1CNc2c(cccc2S(=O)(=O)N[C@@H](CCCNC(=N)N)C(=O)N2CC[C@@H](C)C[C@@H]2C(=O)O)C1 (stereo not given in full) [Argatroban],1.09,1.15,0.917,0.969
COc1ccccc1N1CCN(CCN(C(=O)C2CCCCC2)c2ccccn2)CC1,0.867,1.06,0.79,0.973
Nc1ccn([C@@H]2O[C@H](CO)[C@@H](O)C2(F)F)c(=O)n1 [Gemcitabine],0.129,0.158,0.123,0.107
CC(=O)O[C@@]12CO[C@@H]1C[C@H](O)[C@@]1(C)C(=O)[C@H](O)C3=C(C)[C@@H](OC(=O)[C@H](O)[C@@H](NC(=O)OC(C)(C)C)c4ccccc4)C[C@@](O)([C@@H](OC(=O)c4ccccc4)[C@H]21)C3(C)C [Docetaxel],0.303,0.3,0.203,0.278
O=C(/C=C/c1ccccc1)NC(NC(=S)Nc1cccc2cccnc12)C(Cl)(Cl)Cl (stereo not given) [Salubrinal],0.989,1.02,0.568,0.955
Nc1ncnc2c1ncn2[C@@H]1O[C@H](CO)[C@@H](O)[C@H]1O [Adenosine],0.806,1.1,0.881,1.14

SMILES,fractional viability [1],fractional viability [2],fractional viability [3],fractional viability [4]
Clc1ccc(CSC(Cn2ccnc2)c2ccc(Cl)cc2Cl)cc1 (stereo not given) [Sulconazole Nitrate],1.09,1.01,0.628,0.876
O=C(c1ccc(Nc2nccc(-c3cc4ccccc4s3)n2)cc1)N1CCC(N2CCCC2)CC1 [IKK-16 (IKK Inhibitor VII)],0.942,0.839,0.0381,0.0277
Cc1cc(/C=C2/SC(=S)NC2=O)c(C)n1-c1cccnc1 [Optovin],0.901,0.933,0.922,0.876
Cc1cc(C)c(Nc2ccnc(Nc3ccc(C#N)cc3)n2)c(C)c1 [Dapivirine (TMC120)],0.713,0.877,0.343,0.353
O=C(O)C(O)Cc1ccc(O)c(O)c1 (stereo not given) [Sodium Danshensu],1.16,1.13,1.07,1.05
COc1cc(C(=O)O)ccc1NC(=O)[C@@H]1N[C@@H](CC(C)(C)C)[C@](C#N)(c2ccc(Cl)cc2F)[C@H]1c1cccc(Cl)c1F [Idasanutlin (RG-7388)],0.719,1.08,0.395,0.747
N[C@@H](Cc1cc(I)c(Oc2cc(I)c(O)c(I)c2)c(I)c1)C(=O)O [L-Thyroxine],1.03,1.03,0.941,1.01
CC1(C)CCC(C)(C)c2cc(NC(=O)c3ccc(C(=O)O)cc3)ccc21 [Tamibarotene],0.823,1.01,0.78,1.01
O=C1Nc2ccccc2/C1=C1/Nc2ccccc2C1=O [Indirubin],0.942,1.14,0.882,1.04
Nc1cccc2c1C(=O)N(C1CCC(=O)NC1=O)C2=O (stereo not given) [Pomalidomide],0.953,1.05,0.798,1.08
Oc1ccc(OC2CCCCO2)cc1 (stereo not given) [Deoxyarbutin],1.02,0.992,0.845,1.02
OCCOCCN1CCN(C2=Nc3ccccc3Sc3ccccc32)CC1 [Quetiapine Fumarate],0.888,1.14,0.71,0.893
Cc1nc(Nc2cnn(C3CCNCC3)c2)nc2c1N(C)C(=O)c1cc3ccccc3cc1N2C,0.723,0.802,0.376,0.51
Cc1cc(C(=O)NOCCO)c(Nc2ccc(I)cc2F)n(C)c1=O,0.245,0.222,0.204,0.201
CC1(C)S[C@@H]2[C@H](NC(=O)[C@H](N)c3ccc(O)cc3)C(=O)N2[C@H]1C(=O)O [Amoxicillin Sodium],0.976,0.967,0.809,1.09
CC1(C)S[C@@H]2[C@H](NC(=O)[C@H](N)c3ccc(O)cc3)C(=O)N2[C@H]1C(=O)O [Amoxicillin],1.08,1.16,0.888,1.17
COc1cccc2c1C(=O)c1c(O)c3c(c(O)c1C2=O)C[C@@](O)(C(=O)CO)C[C@@H]3O[C@H]1C[C@H](N)[C@H](O)[C@H](C)O1 [Doxorubicin (Adriamycin)],0.377,0.212,0.437,0.323
